# Assay results taken from patent US20130236459A1 (MERRIMACK PHARMACEUTICALS, published 2013).
# B1: SF-G1-C8 (bispecific antibody, human IgG1, kappa)
# heavy: EVQLLQSGGGLVQPGGSLRLSCAASGFTFSVYPMHWVRQAPGKGLEWVSSISSSGGATRYADSVKGRFTISRDNSKNTLYLQMNSLRAEDTAVYYCAKDFYDILTGNAFDIWGQGTTVTVSSASTKGPSVFPLAPSSKSTSGGTAALGCLVKDYFPEPVTVSWNSGALTSGVHTFPAVLQSSGLYSLSSVVTVPSSSLGTQTYICNVNHKPSNTKVDKKV[left out - human IgG1 Fc]GGGSGGGGSGGGGSQVQLVQSGGGLVQPGGSLRLSCAASGFTFDDYAMHWVRQAPGKGLEWVAGISWNSGSIGYADSVKGRFTISRDNAKNSLYLQMNSLRPEDTAVYYCARDLGYNQWVEGFDYWGQGTLVTVSSASTGGGGSGGGGSGGGGSGGGGSSYELTQDPAVSVALGQTVRITCQGDSLRSYYASWYQQKPGQAPVLVIYGKNNRPSGIPDRFSGSTSGNSASLTITGAQAEDEADYYCNSRDSSGNHWVFGGGTKVTVLG
# light: DIQMTQSPSSLSASTGDRVTITCRASQGISSYLAWYQQKPGKAPKLLIYAASTLQSGVPSRFSGSGSGTDFTLTISSLQPEDFATYYCQQYFTFPLTFGGGTKVEIKRTVAAPSVFIFPPSDEQLKSGTASVVCLLNNFYPREAKVQWKVDNALQSGNSQESVTEQDSKDSTYSLSSTLTLSKADYEKHKVYACEVTHQGLSSPVTKSFNRGEC
# notes: IgG1-(scFv)2: anti-IGF-1R SF Fab, anti-ErbB3 C8 scFv; also called 16F; SF-C8
# B2: SF-G1-P6 (bispecific antibody, human IgG1, kappa)
# heavy: EVQLLQSGGGLVQPGGSLRLSCAASGFTFSVYPMHWVRQAPGKGLEWVSSISSSGGATRYADSVKGRFTISRDNSKNTLYLQMNSLRAEDTAVYYCAKDFYDILTGNAFDIWGQGTTVTVSSASTKGPSVFPLAPSSKSTSGGTAALGCLVKDYFPEPVTVSWNSGALTSGVHTFPAVLQSSGLYSLSSVVTVPSSSLGTQTYICNVNHKPSNTKVDKKV[left out - human IgG1 Fc]GGGSGGGGSGGGGSEVQLVESGGGLVQPGRSLRLSCAASGFTFDDYAMHWVRQAPGKGLEWVSGISWNSGSTGYADSVKGRFTISRDNAKNSLYLQMNSLRAEDTALYYCARDLGYNQWLEGFDYWGQGTLVTVSSASTGGGGSGGGGSGGGGSSSELTQDPAVSVALGQTVRITCQGDSLRSYYASWYQQKPGQAPVLVIYGKNNRPSGIPDRFSGSSSGNTASLTITGAQAEDEADYYCMSRDHPGNQWVFGGGTKVTVLG
# light: B1 light
# notes: IgG1-(scFv)2: anti-IGF-1R Fab, anti-ErbB3 scFv
# B3: SF-G1-P1 (bispecific antibody, human IgG1, kappa)
# heavy: EVQLLQSGGGLVQPGGSLRLSCAASGFTFSVYPMHWVRQAPGKGLEWVSSISSSGGATRYADSVKGRFTISRDNSKNTLYLQMNSLRAEDTAVYYCAKDFYDILTGNAFDIWGQGTTVTVSSASTKGPSVFPLAPSSKSTSGGTAALGCLVKDYFPEPVTVSWNSGALTSGVHTFPAVLQSSGLYSLSSVVTVPSSSLGTQTYICNVNHKPSNTKVDKKV[left out - human IgG1 Fc]GGGSGGGGSGGGGSEVQLVESGGGLVQPGRSLRLSCAASGFTFDDYAMHWVRQAPGKGLEWVSGISWDSGSTGYADSVKGRFTISRDNAKNSLYLQMNSLRAEDTALYYCARDLGAYQWVEGFDYWGQGTLVTVSSASTGGGGSGGGGSGGGGSSSELTQDPAVSVALGQTVRITCQGDSLRSYYASWYQQKPGQAPVLVIYGKNNRPSGIPDRFSGSSSGNTASLTITGAQAEDEADYYCESRDSPGNQWVFGGGTKVTVLG
# light: B1 light
# notes: as for B2
# B4: SF-G1-M1.3 (bispecific antibody, human IgG1, kappa)
# heavy: EVQLLQSGGGLVQPGGSLRLSCAASGFTFSVYPMHWVRQAPGKGLEWVSSISSSGGATRYADSVKGRFTISRDNSKNTLYLQMNSLRAEDTAVYYCAKDFYDILTGNAFDIWGQGTTVTVSSASTKGPSVFPLAPSSKSTSGGTAALGCLVKDYFPEPVTVSWNSGALTSGVHTFPAVLQSSGLYSLSSVVTVPSSSLGTQTYICNVNHKPSNTKVDKKV[left out - human IgG1 Fc]GGGSGGGGSGGGGSQVQLVQSGGGLVQPGGSLRLSCAASGFTFDDYAMHWVRQAPGKGLEWVAGISWDSGSTGYADSVKGRFTISRDNAKNSLYLQMNSLRAEDTALYYCARDLGAYQWVEGFDYWGQGTLVTVSSASTGGGGSGGGGSGGGGSGGGGSSYELTQDPAVSVALGQTVRITCQGDSLRSYYASWYQQKPGQAPVLVIYGKNNRPSGIPDRFSGSTSGNSASLTITGAQAEDEADYYCNSRDSPGNQWVFGGGTKVTVLG
# light: B1 light
# notes: as for B2
# B5: SF-G1-M27 (bispecific antibody, human IgG1, kappa)
# heavy: EVQLLQSGGGLVQPGGSLRLSCAASGFTFSVYPMHWVRQAPGKGLEWVSSISSSGGATRYADSVKGRFTISRDNSKNTLYLQMNSLRAEDTAVYYCAKDFYDILTGNAFDIWGQGTTVTVSSASTKGPSVFPLAPSSKSTSGGTAALGCLVKDYFPEPVTVSWNSGALTSGVHTFPAVLQSSGLYSLSSVVTVPSSSLGTQTYICNVNHKPSNTKVDKKV[left out - human IgG1 Fc]GGGSGGGGSGGGGSEVQLVESGGGLVQPGRSLRLSCAASGFTFDDYAMHWVRQAPGKGLEWVSGISWNSGSTGYADSVKGRFTISRDNAKNSLYLQMNSLRAEDTALYYCARDLGFNQWVDGFDYWGQGTLVTVSSASTGGGGSGGGGSGGGGSSSELTQDPAVSVALGQTVRITCQGDSLRSYYASWYQQKPGQAPVLVIYGKNNRPSGIPDRFSGSSSGNTASLTITGAQAEDEADYYCNSRDTPGDQWVFGGGTKVTVLG
# light: B1 light
# notes: as for B2
# B6: SF-G1-B69 (bispecific antibody, human IgG1, kappa)
# heavy: EVQLLQSGGGLVQPGGSLRLSCAASGFTFSVYPMHWVRQAPGKGLEWVSSISSSGGATRYADSVKGRFTISRDNSKNTLYLQMNSLRAEDTAVYYCAKDFYDILTGNAFDIWGQGTTVTVSSASTKGPSVFPLAPSSKSTSGGTAALGCLVKDYFPEPVTVSWNSGALTSGVHTFPAVLQSSGLYSLSSVVTVPSSSLGTQTYICNVNHKPSNTKVDKKV[left out - human IgG1 Fc]GGGSGGGGSGGGGSEVQLVESGGGLVQPGRSLRLSCAASGFTFDDYAMHWVRQAPGKGLEWVSGISWNSGSVGYADSVKGRFTISRDNAKNSLYLQMNSLRAEDTALYYCARDLGYNQWLEGFDYWGQGTLVTVSSASTGGGGSGGGGSGGGGSSSELTQDPAVSVALGQTVRITCQGDSLRSYYASWYQQKPGQAPVLVIYGKNNRPSGIPDRFSGSSSGNTASLTITGAQAEDEADYYCMSRDSPGNQWVFGGGTKVTVLG
# light: B1 light
# notes: as for B2
# What was measured:
# [1] = molecular target: T1, IGF-1R (receptor for insulin-like growth factor 1), endogenous on human tumor cell lines (human, UniProt P08069 31-1367); test: cell-based or functional assay
# T1 sequence (P08069 31-1367): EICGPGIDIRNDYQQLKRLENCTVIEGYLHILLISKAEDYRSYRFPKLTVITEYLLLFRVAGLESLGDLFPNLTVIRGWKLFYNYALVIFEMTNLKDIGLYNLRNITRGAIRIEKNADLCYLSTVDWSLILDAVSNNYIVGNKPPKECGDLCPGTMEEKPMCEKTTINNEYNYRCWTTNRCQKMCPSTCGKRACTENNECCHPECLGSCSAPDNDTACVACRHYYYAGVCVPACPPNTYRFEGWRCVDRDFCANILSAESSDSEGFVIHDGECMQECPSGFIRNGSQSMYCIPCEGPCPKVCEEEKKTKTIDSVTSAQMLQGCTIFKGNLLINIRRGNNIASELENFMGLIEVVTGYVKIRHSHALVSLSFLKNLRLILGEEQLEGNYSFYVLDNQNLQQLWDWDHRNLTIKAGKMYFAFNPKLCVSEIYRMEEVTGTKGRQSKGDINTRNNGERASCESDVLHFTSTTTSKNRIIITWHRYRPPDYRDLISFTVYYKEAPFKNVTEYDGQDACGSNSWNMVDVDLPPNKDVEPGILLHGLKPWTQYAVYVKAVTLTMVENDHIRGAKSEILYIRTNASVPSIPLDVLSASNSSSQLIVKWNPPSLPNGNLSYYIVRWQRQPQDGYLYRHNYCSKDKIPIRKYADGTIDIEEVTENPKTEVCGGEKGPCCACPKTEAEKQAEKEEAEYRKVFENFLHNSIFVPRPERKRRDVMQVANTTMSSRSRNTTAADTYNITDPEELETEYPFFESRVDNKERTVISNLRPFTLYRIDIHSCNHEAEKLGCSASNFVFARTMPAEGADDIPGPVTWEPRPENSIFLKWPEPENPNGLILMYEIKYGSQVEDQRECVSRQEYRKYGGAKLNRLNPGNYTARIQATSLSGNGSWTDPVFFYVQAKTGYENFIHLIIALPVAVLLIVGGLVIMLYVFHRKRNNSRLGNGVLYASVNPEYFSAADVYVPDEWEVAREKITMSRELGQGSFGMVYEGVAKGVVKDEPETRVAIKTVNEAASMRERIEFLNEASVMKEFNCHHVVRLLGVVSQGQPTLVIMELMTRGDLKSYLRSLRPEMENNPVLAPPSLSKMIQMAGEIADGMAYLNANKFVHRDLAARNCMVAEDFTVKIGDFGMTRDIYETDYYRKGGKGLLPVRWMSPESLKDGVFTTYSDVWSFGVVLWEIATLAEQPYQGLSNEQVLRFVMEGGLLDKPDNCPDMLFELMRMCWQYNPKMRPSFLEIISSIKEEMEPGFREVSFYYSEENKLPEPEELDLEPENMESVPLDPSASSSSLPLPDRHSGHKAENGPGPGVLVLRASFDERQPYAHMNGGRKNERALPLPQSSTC
# [2] = molecular target: T2, ErbB3 (HER3), endogenous on human tumor cell lines (human, UniProt P21860 20-1342); test: cell-based or functional assay
# [3] = molecular target: T3, ErbB3-His (ErbB3 with a C-terminal hexa-histidine tag), human (human, UniProt P21860 fragment); test: ELISA, ErbB3-His coated plate, anti-Fc-HRP
# T3 construct: Bought reagent; also called recombinant ErbB3
# Description: 96-well REACTI-BIND plates (Pierce) are coated with 50 ul of ErbB3-His (ErbB3 with a C-terminal hexa-histidine tag—2 ug/ml in PBS) (“hexa-histidine” disclosed as SEQ ID NO:403) and incubated overnight at 4° C. The next day plates are washed with PBS+0.05% Tween-20 (PBS-T) and blocked for 1 hr. at room temperature with 100 ul of Protein-Free Blocking Buffer (Pierce). Plates are washed with PBS-T and 50 ul of each bispecific antibody is added in duplicate. Concentrations start at 500 nM (in PBS-T) and include ten additional two-fold dilutions and one blank (PBS-T only). Plates are incubated at room temperature for two hours and then washed with PBS-T. 50 ul of anti-Fc-HRP (Jackson Labs) is added at 1:40,000 in PBS-T, and plates are incubated in the dark for 1 hr. at room temperature. Plates are again washed with PBS-T and 100 ul of TMB substrate (Thermo Scientific, TMB and peroxide solution mixed 1:1) added. The plates are incubated for 5-15 minutes at room temperature until a blue color develops, and the reaction is stopped with 100 ul of STOP solution (Cell Signaling Technology). The absorbance was read at 450 nm on a PerkinElmer Envision plate reader, and binding curves were generated with GraphPad PRISM, using a log (agonist) vs response (three parameter) non-linear regression curve fit.
# [4] = molecular target: T1, IGF-1R (receptor for insulin-like …); test: cell-based or functional assay; remark: listed apart in the source
# [5] = molecular target: T2, ErbB3 (HER3), endogenous on human tumor …; test: cell-based or functional assay; remark: listed apart in the source
# [6] = molecular target: T1, IGF-1R (receptor for insulin-like …); test: cell-based or functional assay; remark: listed apart in the source
# [7] = molecular target: T2, ErbB3 (HER3), endogenous on human tumor …; test: cell-based or functional assay; remark: listed apart in the source
# [8] = molecular target: T1, IGF-1R (receptor for insulin-like …); test: cell-based or functional assay; remark: listed apart in the source
# [9] = molecular target: T2, ErbB3 (HER3), endogenous on human tumor …; test: cell-based or functional assay; remark: listed apart in the source
# [10] = molecular target: T1, IGF-1R (receptor for insulin-like …); test: cell-based or functional assay; remark: listed apart in the source
# [11] = molecular target: T2, ErbB3 (HER3), endogenous on human tumor …; test: cell-based or functional assay; remark: listed apart in the source
# [12] = molecular target: T1, IGF-1R (receptor for insulin-like …); test: cell-based or functional assay; remark: listed apart in the source
# [13] = molecular target: T2, ErbB3 (HER3), endogenous on human tumor …; test: cell-based or functional assay; remark: listed apart in the source
# [14] = molecular target: T1, IGF-1R (receptor for insulin-like …); test: cell-based or functional assay; remark: listed apart in the source
# [15] = molecular target: T2, ErbB3 (HER3), endogenous on human tumor …; test: cell-based or functional assay; remark: listed apart in the source
binder,measurement,setting,value
B1,pIGF1R % Inhibition (BxPC-3),[1],93%
same,pIGF1R IC50 (BxPC-3),[1],9.5e-10 M (inferred)
same,pErbB3 % Inhibition (BxPC-3),[2],94.9%
same,pErbB3 IC50 (BxPC-3),[2],2.4e-10 M (inferred)
same,EC50,[3],0.3 nM
same,"pIGF-1R IC50 (BxPC-3, HRG+IGF1)",[4],1.1 nM
same,"pErbB3 IC50 (BxPC-3, HRG+IGF1)",[5],0.5 nM
same,pIGF1R % Inhibition (BxPC-3),[6],91%
same,pIGF1R IC50 (BxPC-3),[6],5.2e-10 M (inferred)
same,pErbB3 % Inhibition (BxPC-3),[7],98%
same,pErbB3 IC50 (BxPC-3),[7],1.9e-10 M (inferred)
same,pIGF-1R IC50 (DU145),[8],1.1e-09 M (inferred)
same,pErbB3 IC50 (BxPC-3),[9],2.4e-10 M (inferred)
same,pErbB3 IC50 (DU145),[9],2e-10 M (inferred)
same,pIGF-1R IC50 (BxPC-3),[10],1.1e-09 M (inferred)
same,pErbB3 IC50 (BxPC-3),[11],5e-10 M (inferred)
same,"pAKT IC50 (BxPC-3, IGF1 40 ng/ml)",[12],1.3e-09 M
same,"pAKT IC50 (BxPC-3, IGF1 400 ng/ml)",[12],5.9e-10 M
same,"pIGF1R IC50 (BxPC-3, IGF1 40 ng/ml)",[12],5.1e-10 M
same,"pIGF1R IC50 (BxPC-3, IGF1 400 ng/ml)",[12],4.4e-10 M
same,"pAKT IC50 (BxPC-3, HRG 20 ng/ml)",[13],4.32e-10 M
same,"pAKT IC50 (BxPC-3, HRG 200 ng/ml)",[13],5.5e-10 M
same,"pErbB3 IC50 (BxPC-3, HRG 20 ng/ml)",[13],2.69e-10 M
same,"pErbB3 IC50 (BxPC-3, HRG 200 ng/ml)",[13],2.66e-10 M
same,pIGF1R IC50 (BxPC-3),[14],2.6e-09 M (inferred)
same,pErbB3 IC50 (BxPC-3),[15],2.1e-10 M (inferred)
B2,pIGF1R % Inhibition (BxPC-3),[1],91.2%
same,pIGF1R IC50 (BxPC-3),[1],8.2e-10 M (inferred)
same,pErbB3 % Inhibition (BxPC-3),[2],96.6%
same,pErbB3 IC50 (BxPC-3),[2],2.9e-10 M (inferred)
same,EC50,[3],0.3 nM
B3,pIGF1R % Inhibition (BxPC-3),[1],91.3%
same,pIGF1R IC50 (BxPC-3),[1],9.2e-10 M (inferred)
same,pErbB3 % Inhibition (BxPC-3),[2],95.3%
same,pErbB3 IC50 (BxPC-3),[2],6.9e-10 M (inferred)
same,EC50,[3],0.4 nM
B4,pIGF1R % Inhibition (BxPC-3),[1],87.9%
same,pIGF1R IC50 (BxPC-3),[1],8e-10 M (inferred)
same,pErbB3 % Inhibition (BxPC-3),[2],97%
same,pErbB3 IC50 (BxPC-3),[2],2.5e-10 M (inferred)
same,EC50,[3],0.2 nM
B5,pIGF1R % Inhibition (BxPC-3),[1],90.7%
same,pIGF1R IC50 (BxPC-3),[1],6e-10 M (inferred)
same,pErbB3 % Inhibition (BxPC-3),[2],98.1%
same,pErbB3 IC50 (BxPC-3),[2],2.5e-10 M (inferred)
same,EC50,[3],0.4 nM
B6,pIGF1R % Inhibition (BxPC-3),[1],91.1%
same,pIGF1R IC50 (BxPC-3),[1],1.2e-09 M (inferred)
same,pErbB3 % Inhibition (BxPC-3),[2],97.8%
same,pErbB3 IC50 (BxPC-3),[2],5.2e-10 M (inferred)
same,EC50,[3],0.4 nM

# Read-outs that look alike come from different tables or passages of the source.
